# Data published in PubChem BioAssay AID624296 (National Center for Advancing Translational Sciences (NCATS), 2012).
# About 9,900 (2.8%) of roughly 350,000 compounds were called active. The shares of active, inactive and inconclusive entries below differ from those in the screen. Calls follow the shape of the dose curve; as a rule, active = well fitted activation curve with a large enough effect; inconclusive = small, poorly fitted or top-dose-only effect; inactive = no such curve, though single readings can be large or run the other way. Potencies of inconclusive entries are left out as doubtful fits.
# Assay: A quantitative high throughput screen for small molecules that induce DNA re-replication in MCF 10a normal breast cells. Also: nearly all actives have a fitted effect of over 50% in size.
# Conditions: MCF 10A DNA re-replication, Hoechst nuclear intensity, 48 h; series mostly up to 46.1 µM
# Potency is read from the fitted curve at half-maximal effect; tags tell the direction and shape of the fitted curve.
row,SMILES,Potency
1,Cc1ccc(Cn2c(C(C)Nc3nc(-c4ccc(F)cc4)cs3)nc3cc(Cl)c(Cl)cc32)cc1 (stereo not given),"inconclusive [activator, full curve]"
2,Cc1ccc(OCC(=O)c2cc(C)n(Cc3cccs3)c2C)c([N+](=O)[O-])n1,"inconclusive [activator, single point]"
3,CC(C)Cn1c(N)c(C(=O)COC(=O)c2cc(C3CC3)nc3ccccc23)c(=O)n(C)c1=O,inactive
4,CCOC(=O)c1c(NC(C)=O)sc(/C(C)=N/Nc2ccc(C(=O)O)cc2)c1C,"inconclusive [activator, partial curve, poor fit]"
5,Cc1cc2c(cc1S(=O)(=O)N1CCOCC1)NC(=O)CO2,inactive
6,CCCCn1cnc2c(c(CC#N)nn2-c2ccccc2)c1=N,"inconclusive [activator, single point]"
7,COc1ccccc1NC(=O)Nc1nc(CC(=O)NCc2ccccn2)cs1,"inconclusive [activator, partial curve, poor fit]"
8,O=C(CCCn1c(=S)[nH]c2ccc(Br)cc2c1=O)NCc1ccccn1,inactive
9,Cc1cc([N+](=O)[O-])nn1Cc1noc(C(=O)NCCc2ccccn2)n1,inactive
10,O=C1C2C(c3cccc(/C=C/c4ccccc4)c3)CC=CC2C(c2ccc3ccccc3c2)N1Cc1ccccc1 (stereo not given),inactive
11,O=C(Nc1nccs1)c1ccc(Cl)cc1[N+](=O)[O-],"inconclusive [activator, single point]"
12,Cc1ccc(N(C(=O)c2snc(C(N)=O)c2N)C(C(=O)NC2CCCC2)c2ccc(C)o2)cc1 (stereo not given),inactive
13,Cc1ccccc1N1C(=O)c2sc3nc4c(c(=O)n3c2C1=O)CCC4,"inconclusive [activator, single point]"
14,COc1ccc(NC(=O)CS(=O)CC(=O)NC2CCCc3ccccc32)cc1 (stereo not given),inactive
15,CCOC(=O)c1ccc(NC(=O)CCc2nnc3ccc(N4CCN(C)CC4)nn23)cc1,"inconclusive [activator, partial curve, poor fit]"
16,O=C(Nc1ccc(CN2CCOCC2)cc1)c1cc(Br)ccc1Cl,"inconclusive [activator, single point]"
17,NNC(=O)COc1ccc2oc3c(c2c1)CCCC3,"inconclusive [activator, partial curve, poor fit]"
18,CCCn1c(NC(=O)c2cccc(S(=O)(=O)N3CCCC3)c2)nc2ccccc21,active: 18.4 µM
19,Brc1ccc2nc(-c3cccs3)c(NCC3CCCO3)n2c1 (stereo not given),active: 20.6 µM
20,O=C(c1cccs1)N(Cc1nc2sc3c(c2c(=O)[nH]1)CCCC3)C1CCCC1,"inconclusive [activator, partial curve, poor fit]"
21,Cc1nnc(NC(=O)c2ccccc2Oc2ccccc2)s1,"inconclusive [activator, single point]"
22,O=C(NCCc1ccccc1)c1cc(-c2ccncc2)nc2ccc(S(=O)(=O)N3CCOCC3)cc12,"inconclusive [activator, single point]"
23,COC(=O)N1C(=O)[C@](c2ccsc2)(C(C)C)N1C(=O)OC,"inconclusive [activator, partial curve, poor fit]"
24,Cc1cc(Br)ccc1OCCN1CC(C)OC(C)C1 (stereo not given),"inconclusive [activator, partial curve, poor fit]"

row,SMILES,Potency
1,CCCCn1c(CN2CCOCC2)nc2c1c(=O)n(C)c(=O)n2C,"inconclusive [activator, single point]"
2,C=CCN(CC=C)C(=S)Nc1cc(Cl)ccc1OC,inactive
3,c1ccc(CCn2nnnc2C(c2cccnc2)N2CCN(c3ccccc3)CC2)cc1 (stereo not given),"inconclusive [activator, single point]"
4,COC(=O)c1ccc(Oc2cc(C)nc(SC)n2)cc1,active: 3.66 µM
5,COc1cc(C(=O)NNC(=S)NC(=O)c2ccc3c(c2)OCO3)cc(OC)c1OC,"inconclusive [activator, single point]"
6,Cc1ccc(/C=N/NC(=O)c2nnn(-c3nonc3N)c2CSc2ccccc2)s1,active: 20.6 µM
7,O=C(Nc1ccc(C(=O)N2CCCC2)cc1)C1CCCC1,"inconclusive [activator, full curve, poor fit]"
8,CCCCCCCOC(=O)C1=C(C)Nc2ncnn2C1c1cccs1 (stereo not given),"inconclusive [activator, single point]"
9,COc1ccc(OCC(=O)N/N=C(\C)c2ccc(OC)cc2)cc1,inactive
10,CC[C@]12c3[nH]c4ccc(OC)cc4c3CCN1C(=O)C(CC(=O)NC/C=C(\C)CCC=C(C)C)C[C@@H]2C(=O)N1CCN(C(=O)c2ccco2)CC1 (stereo not given in full),"inconclusive [activator, single point]"
11,Cc1ccc(C(c2nnnn2C2CCCCC2)N2CCc3ccccc32)cc1 (stereo not given),"inconclusive [activator, single point]"
12,COc1ccccc1-c1cc(C(=O)NN)[nH]n1,"inconclusive [activator, single point]"
13,CCOCCCNC(=O)C(c1ccc(Cl)cc1)N1CCN(c2ccccc2)CC1 (stereo not given),inactive
14,COc1ccc(C(=O)c2c(-c3cccc(C)c3)oc3ccc(N4CCOCC4)cc23)cn1,"inconclusive [activator, single point]"
15,COc1ccc(C(=O)NNC(=S)NC(=O)c2ccc(OC)cc2)cc1,"inconclusive [activator, partial curve]"
16,CCOc1ccccc1CNC(=O)CCCn1ccc2cc(S(=O)(=O)N3CCCC3)ccc21,inactive
17,CCCOc1ccc(/C=N/Nc2ccccc2[N+](=O)[O-])c(OCCC)c1,"inconclusive [activator, partial curve, poor fit]"
18,Cc1nc(N)c(CC(Br)CBr)c(Cl)n1 (stereo not given),inactive
19,COc1ccc2oc(-c3cccc(NC(=O)CSc4ccc(Cl)cc4)c3)nc2c1,"inconclusive [activator, partial curve, poor fit]"
20,O=C1N2CCSC2=NC1(Nc1ccccn1)C(F)(F)F (stereo not given),inactive
21,Cc1c(CNCCc2ccc(Cl)cc2)c(C(=O)O)c(C)n1-c1ccccc1,inactive
22,Cc1cc(OCCSc2nnc(-c3cccs3)n2C)ccc1Cl,"inconclusive [activator, full curve, poor fit]"
23,Cc1cc(N2C(=O)C(O)=C(C(=O)c3cc4ccccc4o3)C2c2cccc(Cl)c2)no1 (stereo not given),"inconclusive [activator, single point]"
24,Cc1ccc(CSCC(=O)Nc2cc(S(=O)(=O)N3CCOCC3)ccc2OC(C)C)cc1,inactive

row,SMILES,Potency
1,COc1ccc(C(=O)CC(=O)C(=O)Nc2ccccc2Cl)cc1,inactive
2,CC(C)CNC(=S)Nc1ccc(Oc2ccccc2)cc1,active: 8.2 µM
3,COc1ccc(S(=O)(=O)NC2CCc3ccccc32)cc1OC (stereo not given),inactive
4,CS(=O)(=O)c1ccc(-c2csc(-c3cccnc3)n2)cc1,inactive
5,CCOC(=O)C1=C(CNCc2ccccc2Cl)NC(=O)NC1c1cccc([N+](=O)[O-])c1 (stereo not given),inactive
6,COc1ccc(CC(=O)NCC(c2ccc(OC)cc2)N(C)C)cc1 (stereo not given),active: 3.26 µM
7,O=C(NCC(c1ccco1)N1CCCC1)c1cc2cc(Cl)ccc2o1 (stereo not given),"inconclusive [activator, full curve, poor fit]"
8,O=C(/C=C/c1ccccc1)N1c2ccccc2Sc2ccc(C(F)(F)F)cc21,"inconclusive [activator, full curve, poor fit]"
9,CC(NC(=O)CCN1C(=O)c2ccccc2C1=O)c1ccc2c(c1)CCCC2 (stereo not given),"inconclusive [activator, partial curve, poor fit]"
10,CCNC(=O)N(CC)C[C@H]1N[C@@](CC)(C(=O)OC)[C@H]2C(=O)N(Cc3ccccc3)C(=O)[C@@H]12,"inconclusive [activator, full curve, poor fit]"
11,CSc1ncc(CN2CCc3c([nH]c4ccccc34)C2c2cccc(C)n2)cn1 (stereo not given),inactive
12,COc1ccc(C2(C(=O)Nc3ccccc3)CCOCC2)cc1,inactive
13,O=C(CC1(O)C(=O)N(Cc2ccccc2Cl)c2ccccc21)c1ccco1 (stereo not given),"inconclusive [activator, single point]"
14,CCc1cc(C(c2ccccc2OC)N2CCOCC2)c(NC(=O)c2ccccc2)s1 (stereo not given),"inconclusive [activator, single point]"
15,CCOc1cc(/C=C(\CC(=O)O)c2nc3ccccc3s2)ccc1OCC(=O)Nc1cccc(C(F)(F)F)c1,"inconclusive [activator, single point]"
16,COc1cccc(NC(=O)Nc2nnc(N3CCCCC3C)s2)c1 (stereo not given),"inconclusive [activator, partial curve, poor fit]"
17,COc1ccc(/C=N/NC(=O)c2cccc(NC(=O)c3ccccc3Cl)c2)cc1,active: 2.59 µM
18,CCCC/C(=N\NC(=O)c1ccc(Br)o1)c1ccccc1,inactive
19,COc1cc(/C=N\NC(=O)c2nonc2N)c(OC)cc1Br,"inconclusive [activator, single point]"
20,CCCCC(=O)N/N=C/c1ccc(-c2ccc([N+](=O)[O-])cc2)o1,inactive
21,C#CCn1c(S(=O)(=O)Cc2ccc(OC)cc2)nc(-c2ccccc2)c1-c1ccccc1,"inconclusive [activator, partial curve, poor fit]"
22,Cc1ccc(Nc2nc(CSc3nnc(-c4cccnc4)n3-c3ccccc3C)cs2)cc1,"inconclusive [activator, partial curve, poor fit]"
